# Experimental data from the supplement of paper PMC8728848.
# The other results are listed elsewhere or left out.
# Legend:
# Experiment in all cases: glycan array binding signal (z-score within array); higher = stronger binding
# Settings in all cases: glycan notation: IUPAC condensed, linker removed
# [1] = molecular target: Neu5Ac(a2-3)Gal(b1-3)[Fuc(a1-4)]GlcNAc
# In short: (§1)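 Columns mapping to the same glycan were averaged after glycan names were converted to IUPAC-condensed notation. The data come from 3228 arrays in the Consortium for Functional Glycomics database, limited to those with an available protein sequence. Binding is reported as a within-array Z-score averaged across arrays of one protein sequence and across linkers.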
# [2] = molecular target: Neu5Ac(a2-3)Gal(b1-3)[Fuc(a1-4)]GlcNAc(b1-3)Gal(b1-4)[Fuc(a1-3)]GlcNAc
# In short: as §1
# [3] = molecular target: Neu5Ac(a2-3)Gal(b1-3)[Neu5Ac(a2-3)Gal(b1-4)]GlcNAc
# In short: as §1
# [4] = molecular target: Neu5Ac(a2-3)Gal(b1-3)[Neu5Ac(a2-6)]GalNAc
# In short: as §1
# [5] = molecular target: Neu5Ac(a2-3)Gal(b1-4)Glc
# In short: as §1
# [6] = molecular target: Neu5Ac(a2-3)Gal(b1-4)GlcNAc
# In short: as §1
# [7] = molecular target: Neu5Ac(a2-3)Gal(b1-4)GlcNAc(b1-2)Man(a1-3)[GlcNAc(b1-2)Man(b1-4)GlcNAc(b1-2)Man(a1-6)]Man(b1-4)GlcNAc(b1-4)GlcNAc
# In short: as §1
# [8] = molecular target: Neu5Ac(a2-3)Gal(b1-4)GlcNAc(b1-2)Man(a1-3)[Neu5Ac(a2-6)Gal(b1-4)GlcNAc(b1-2)Man(a1-6)]Man(b1-4)GlcNAc(b1-4)GlcNAc
# In short: as §1
# [9] = molecular target: Neu5Ac(a2-3)Gal(b1-4)GlcNAc(b1-3)Gal(b1-3)GlcNAc
# In short: as §1
# [10] = molecular target: Neu5Ac(a2-3)Gal(b1-4)GlcNAc(b1-3)Gal(b1-4)GlcNAc
# In short: as §1
# [11] = molecular target: Neu5Ac(a2-3)Gal(b1-4)GlcNAc(b1-3)Gal(b1-4)GlcNAc(b1-3)Gal(b1-4)GlcNAc
# In short: as §1
# [12] = molecular target: Neu5Ac(a2-3)Gal(b1-4)GlcNAc(b1-3)Gal(b1-4)[Fuc(a1-3)]GlcNAc
# In short: as §1
# [13] = molecular target: Neu5Ac(a2-3)Gal(b1-4)GlcNAc(b1-6)[Gal(b1-3)]GalNAc
# In short: as §1
# [14] = molecular target: Neu5Ac(a2-3)Gal(b1-4)GlcNAc(b1-6)[Neu5Ac(a2-3)Gal(b1-3)]GalNAc
# In short: as §1
# [15] = molecular target: Neu5Ac(a2-3)Gal(b1-4)GlcNAc6S
# In short: as §1
# [16] = molecular target: Neu5Ac(a2-3)Gal(b1-4)[Fuc(a1-3)]GlcNAc
# In short: as §1
# [17] = molecular target: Neu5Ac(a2-3)Gal(b1-4)[Fuc(a1-3)]GlcNAc(b1-3)Gal
# In short: as §1
# [18] = molecular target: Neu5Ac(a2-3)Gal(b1-4)[Fuc(a1-3)]GlcNAc(b1-3)Gal(b1-4)GlcNAc
# In short: as §1
# [19] = molecular target: Neu5Ac(a2-3)Gal(b1-4)[Fuc(a1-3)]GlcNAc(b1-3)Gal(b1-4)[Fuc(a1-3)]GlcNAc(b1-3)Gal(b1-4)[Fuc(a1-3)]GlcNAc
# In short: as §1
# [20] = molecular target: Neu5Ac(a2-3)Gal(b1-4)[Fuc(a1-3)]GlcNAc(b1-6)[Gal(b1-3)]GalNAc
# In short: as §1
# [21] = molecular target: Neu5Ac(a2-3)Gal(b1-4)[Fuc(a1-3)]GlcNAc6S
# In short: as §1
# [22] = molecular target: Neu5Ac(a2-3)Gal6S(b1-4)GlcNAc
# In short: as §1
# [23] = molecular target: Neu5Ac(a2-3)Gal6S(b1-4)[Fuc(a1-3)]GlcNAc
# In short: as §1
# [24] = molecular target: Neu5Ac(a2-3)GalNAc
# In short: as §1
# [25] = molecular target: Neu5Ac(a2-3)GalNAc(b1-4)GlcNAc
# In short: as §1
# [26] = molecular target: Neu5Ac(a2-3)[GalNAc(b1-4)]Gal(b1-4)Glc
# In short: as §1
# [27] = molecular target: Neu5Ac(a2-3)[GalNAc(b1-4)]Gal(b1-4)GlcNAc
# In short: as §1
# [28] = molecular target: Neu5Ac(a2-3)[Neu5Ac(a2-6)]GalNAc
# In short: as §1
# [29] = molecular target: Neu5Ac(a2-6)Gal
# In short: as §1
# [30] = molecular target: Neu5Ac(a2-6)Gal(b1-4)Glc
# In short: as §1
# [31] = molecular target: Neu5Ac(a2-6)Gal(b1-4)GlcNAc
# In short: as §1
# [32] = molecular target: Neu5Ac(a2-6)Gal(b1-4)GlcNAc(b1-2)Man(a1-3)[Gal(b1-4)GlcNAc(b1-2)Man(a1-6)]Man(b1-4)GlcNAc(b1-4)GlcNAc
# In short: as §1
# [33] = molecular target: Neu5Ac(a2-6)Gal(b1-4)GlcNAc(b1-2)Man(a1-3)[GlcNAc(b1-2)Man(a1-6)]Man(b1-4)GlcNAc(b1-4)GlcNAc
# In short: as §1
# [34] = molecular target: Neu5Ac(a2-6)Gal(b1-4)GlcNAc(b1-2)Man(a1-3)[GlcNAc(b1-2)Man(b1-4)GlcNAc(b1-2)Man(a1-6)]Man(b1-4)GlcNAc(b1-4)GlcNAc
# In short: as §1
# [35] = molecular target: Neu5Ac(a2-6)Gal(b1-4)GlcNAc(b1-2)Man(a1-3)[Neu5Ac(a2-6)Gal(b1-4)GlcNAc(b1-2)Man(a1-6)]Man(b1-4)GlcNAc(b1-4)GlcNAc
# In short: as §1
# [36] = molecular target: Neu5Ac(a2-6)Gal(b1-4)GlcNAc(b1-2)Man(a1-6)[Gal(b1-4)GlcNAc(b1-2)Man(a1-3)]Man(b1-4)GlcNAc(b1-4)GlcNAc
# In short: as §1
# [37] = molecular target: Neu5Ac(a2-6)Gal(b1-4)GlcNAc(b1-2)Man(a1-6)[GlcNAc(b1-2)Man(a1-3)]Man(b1-4)GlcNAc(b1-4)GlcNAc
# In short: as §1
# [38] = molecular target: Neu5Ac(a2-6)Gal(b1-4)GlcNAc(b1-3)Gal(b1-4)GlcNAc
# In short: as §1
# [39] = molecular target: Neu5Ac(a2-6)Gal(b1-4)GlcNAc(b1-3)Gal(b1-4)[Fuc(a1-3)]GlcNAc(b1-3)Gal(b1-4)[Fuc(a1-3)]GlcNAc
# In short: as §1
# [40] = molecular target: Neu5Ac(a2-6)Gal(b1-4)GlcNAc6S
# In short: as §1
# [41] = molecular target: Neu5Ac(a2-6)GalNAc
# In short: as §1
# [42] = molecular target: Neu5Ac(a2-6)GalNAc(b1-4)GlcNAc
# In short: as §1
# [43] = molecular target: Neu5Ac(a2-8)Neu5Ac
# In short: as §1
# [44] = molecular target: Neu5Ac(a2-8)Neu5Ac(a2-3)Gal(b1-4)Glc
# In short: as §1
# [45] = molecular target: Neu5Ac(a2-8)Neu5Ac(a2-3)[GalNAc(b1-4)]Gal(b1-4)Glc
# In short: as §1
# [46] = molecular target: Neu5Ac(a2-8)Neu5Ac(a2-8)Neu5Ac
# In short: as §1
# [47] = molecular target: Neu5Ac(a2-8)Neu5Ac(a2-8)Neu5Ac(a2-3)Gal(b1-4)Glc
# In short: as §1
# [48] = molecular target: Neu5Ac(a2-8)Neu5Ac(a2-8)Neu5Ac(a2-3)[GalNAc(b1-4)]Gal(b1-4)Glc
# In short: as §1
# [49] = molecular target: Neu5Ac(a2-8)Neu5Ac(a2-8)Neu5Ac(a2-8)Neu5Ac(a2-3)[GalNAc(b1-4)]Gal(b1-4)Glc
# In short: as §1
# [50] = molecular target: Neu5Ac(b2-6)Gal(b1-4)GlcNAc
# In short: as §1
# [51] = molecular target: Neu5Ac(b2-6)GalNAc
# In short: as §1
# [52] = molecular target: Neu5Ac9Ac(a2-6)Gal(b1-4)GlcNAc
# In short: as §1
# [53] = molecular target: Neu5Gc(a2-3)Gal(b1-3)GlcNAc
# In short: as §1
# [54] = molecular target: Neu5Gc(a2-3)Gal(b1-3)[Fuc(a1-4)]GlcNAc
# In short: as §1
# [55] = molecular target: Neu5Gc(a2-3)Gal(b1-4)Glc
# In short: as §1
# [56] = molecular target: Neu5Gc(a2-3)Gal(b1-4)GlcNAc
# In short: as §1
# [57] = molecular target: Neu5Gc(a2-3)Gal(b1-4)[Fuc(a1-3)]GlcNAc
# In short: as §1
# [58] = molecular target: Neu5Gc(a2-6)Gal(b1-4)GlcNAc
# In short: as §1
# [59] = molecular target: Neu5Gc(a2-6)GalNAc
# In short: as §1
# [60] = molecular target: Neu5Gc(b2-6)Gal(b1-4)GlcNAc
# In short: as §1
binder,measurement,setting,value
"LYVE-1 (Homo sapiens), Q9Y5Y7 (protein) MARCFSLVLLLTSIWTTRLLVQGSLRAEELSIQVSCRIMGITLVSKKANQQLNFTEAKEACRLLGLSLAGKDQVETALKASFETCSYGWVGDGFVVISRISPNPKCGKNGVGVLIWKVPVSRQFAAYCYNSSDTWTNSCIPEIITTKDPIFNTQTATQTTEFIVSDSTYSVASPYSTIPAPTTTPPAPASTSIPRRKKLICVTEVFMETSTMSTETEPFVENKAAFKNEAAGDPEVKFNWYVDGVEVHNAKPREEQYNSTYRVVSLVTVLHQDWLNGKEYKCKVSNKALPAPIEKTISKAKGQPREPQVYTLPPSRDELTKNQVSLTCLVKGFYPSDIAVEWESNGQPENNYKTTPPVLDSDGSFFLYSKLTVDKSRWQQGNVFSCSVMHEALHNHYTQRSLSLSPGK",glycan array binding signal (z-score),[1],-0.007
same,glycan array binding signal (z-score),[2],-0.424
same,glycan array binding signal (z-score),[3],-0.228
same,glycan array binding signal (z-score),[4],0.133
same,glycan array binding signal (z-score),[5],0.324
same,glycan array binding signal (z-score),[6],-0.595
same,glycan array binding signal (z-score),[7],-0.128
same,glycan array binding signal (z-score),[8],-0.141
same,glycan array binding signal (z-score),[9],1.41
same,glycan array binding signal (z-score),[10],1.29
same,glycan array binding signal (z-score),[11],-0.095
same,glycan array binding signal (z-score),[12],-0.602
same,glycan array binding signal (z-score),[13],3.43
same,glycan array binding signal (z-score),[14],6.79
same,glycan array binding signal (z-score),[15],-0.351
same,glycan array binding signal (z-score),[16],-0.098
same,glycan array binding signal (z-score),[17],0.531
same,glycan array binding signal (z-score),[18],-0.309
same,glycan array binding signal (z-score),[19],5.13
same,glycan array binding signal (z-score),[20],-0.173
same,glycan array binding signal (z-score),[21],-0.17
same,glycan array binding signal (z-score),[22],-0.03
same,glycan array binding signal (z-score),[23],-0.005
same,glycan array binding signal (z-score),[24],-0.126
same,glycan array binding signal (z-score),[25],3.73
same,glycan array binding signal (z-score),[26],-0.358
same,glycan array binding signal (z-score),[27],-0.558
same,glycan array binding signal (z-score),[28],-0.992
same,glycan array binding signal (z-score),[29],-0.135
same,glycan array binding signal (z-score),[30],-0.332
same,glycan array binding signal (z-score),[31],-0.457
same,glycan array binding signal (z-score),[32],-0.704
same,glycan array binding signal (z-score),[33],-0.596
same,glycan array binding signal (z-score),[34],0.502
same,glycan array binding signal (z-score),[35],0.084
same,glycan array binding signal (z-score),[36],-0.553
same,glycan array binding signal (z-score),[37],-0.436
same,glycan array binding signal (z-score),[38],0.979
same,glycan array binding signal (z-score),[39],-0.243
same,glycan array binding signal (z-score),[40],-0.237
same,glycan array binding signal (z-score),[41],0.052
same,glycan array binding signal (z-score),[42],2.4
same,glycan array binding signal (z-score),[43],-0.731
same,glycan array binding signal (z-score),[44],1.68
same,glycan array binding signal (z-score),[45],-0.59
same,glycan array binding signal (z-score),[46],-0.429
same,glycan array binding signal (z-score),[47],-0.143
same,glycan array binding signal (z-score),[48],-0.129
same,glycan array binding signal (z-score),[49],0.321
same,glycan array binding signal (z-score),[50],0.625
same,glycan array binding signal (z-score),[51],-0.024
same,glycan array binding signal (z-score),[52],0.046
same,glycan array binding signal (z-score),[53],-0.595
same,glycan array binding signal (z-score),[54],-0.356
same,glycan array binding signal (z-score),[55],-0.428
same,glycan array binding signal (z-score),[56],0.032
same,glycan array binding signal (z-score),[57],2.16
same,glycan array binding signal (z-score),[58],0.13
same,glycan array binding signal (z-score),[59],0.62
same,glycan array binding signal (z-score),[60],-0.092
